The list shows a part of the results.
How the values were obtained:
Experiment in all cases: glycan array binding signal (z-score within array); higher = stronger binding
Conditions in all cases: glycan notation: IUPAC condensed, linker removed
[1] = target: Fuc(a1-2)[Gal(a1-3)]Gal(b1-4)[Fuc(a1-3)]Glc
Outline: (§1)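 From the Consortium for Functional Glycomics database, 3228 arrays were curated, keeping only those whose protein sequence was available. Binding is given as a within-array Z-score averaged across arrays sharing a protein sequence and across linkers. Negative Z-scores can be read as non-binding.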

[2] = target: Fuc(a1-2)[Gal(a1-3)]Gal(b1-4)[Fuc(a1-3)]GlcNAc
Outline: as §1

[3] = target: Fuc(a1-2)[Gal(a1-3)]Gal(b1-4)[Fuc(a1-3)]GlcNAc(b1-3)GalNAc
Outline: as §1

[4] = target: Fuc(a1-2)[Gal(a1-4)]Gal(b1-4)GlcNAc
Outline: as §1

[5] = target: Fuc(a1-2)[GalNAc(a1-3)]Gal
Outline: as §1

[6] = target: Fuc(a1-2)[GalNAc(a1-3)]Gal(b1-3)GalNAc(a1-3)[Fuc(a1-2)]Gal(b1-4)GlcNAc
Outline: as §1

[7] = target: Fuc(a1-2)[GalNAc(a1-3)]Gal(b1-3)GlcNAc
Outline: as §1

[8] = target: Fuc(a1-2)[GalNAc(a1-3)]Gal(b1-3)GlcNAc(b1-2)Man(a1-3)[Fuc(a1-2)[GalNAc(a1-3)]Gal(b1-3)GlcNAc(b1-2)Man(a1-6)]Man(b1-4)GlcNAc(b1-4)GlcNAc
Outline: as §1

[9] = target: Fuc(a1-2)[GalNAc(a1-3)]Gal(b1-3)GlcNAc(b1-2)Man(a1-3)[Fuc(a1-2)[GalNAc(a1-3)]Gal(b1-3)GlcNAc(b1-2)Man(a1-6)]Man(b1-4)GlcNAc(b1-4)[Fuc(a1-6)]GlcNAc
Outline: as §1

[10] = target: Fuc(a1-2)[GalNAc(a1-3)]Gal(b1-3)GlcNAc(b1-3)GalNAc
Outline: as §1

[11] = target: Fuc(a1-2)[GalNAc(a1-3)]Gal(b1-3)GlcNAc(b1-6)GalNAc
Outline: as §1

[12] = target: Fuc(a1-2)[GalNAc(a1-3)]Gal(b1-4)Glc
Outline: as §1

[13] = target: Fuc(a1-2)[GalNAc(a1-3)]Gal(b1-4)GlcNAc
Outline: as §1

[14] = target: Fuc(a1-2)[GalNAc(a1-3)]Gal(b1-4)GlcNAc(b1-2)Man(a1-3)[Fuc(a1-2)[GalNAc(a1-3)]Gal(b1-4)GlcNAc(b1-2)Man(a1-6)]Man(b1-4)GlcNAc(b1-4)GlcNAc
Outline: as §1

[15] = target: Fuc(a1-2)[GalNAc(a1-3)]Gal(b1-4)GlcNAc(b1-2)Man(a1-3)[Fuc(a1-2)[GalNAc(a1-3)]Gal(b1-4)GlcNAc(b1-2)Man(a1-6)]Man(b1-4)GlcNAc(b1-4)[Fuc(a1-6)]GlcNAc
Outline: as §1

[16] = target: Fuc(a1-2)[GalNAc(a1-3)]Gal(b1-4)GlcNAc(b1-3)Gal(b1-4)GlcNAc
Outline: as §1

[17] = target: Fuc(a1-2)[GalNAc(a1-3)]Gal(b1-4)GlcNAc(b1-3)Gal(b1-4)GlcNAc(b1-3)Gal(b1-4)GlcNAc
Outline: as §1

[18] = target: Fuc(a1-2)[GalNAc(a1-3)]Gal(b1-4)GlcNAc(b1-3)GalNAc
Outline: as §1

[19] = target: Fuc(a1-2)[GalNAc(a1-3)]Gal(b1-4)[Fuc(a1-3)]GlcNAc
Outline: as §1

[20] = target: Fuc(a1-2)[GalNAc(a1-3)]Gal(b1-4)[Fuc(a1-3)]GlcNAc(b1-3)GalNAc
Outline: as §1

[21] = target: Fuc(a1-2)[GalNAc(a1-4)]Gal(b1-4)GlcNAc
Outline: as §1

[22] = target: Fuc(a1-2)[GalNAc(b1-3)]Gal
Outline: as §1

Fuc(a1-3)GlcNAc = target: Fuc(a1-3)GlcNAc
Outline: as §1

[23] = target: Fuc(a1-3)[Gal(b1-4)]Glc6S
Outline: as §1

[24] = target: Fuc(a1-3)[Gal(b1-4)]GlcNAc
Outline: as §1

[25] = target: Fuc(a1-3)[Gal(b1-4)]GlcNAc(b1-2)Man
Outline: as §1

[26] = target: Fuc(a1-3)[Gal(b1-4)]GlcNAc(b1-2)Man(a1-3)[Fuc(a1-3)[Gal(b1-4)]GlcNAc(b1-2)Man(a1-6)]Man(b1-4)GlcNAc(b1-4)GlcNAc
Outline: as §1

[27] = target: Fuc(a1-3)[Gal(b1-4)]GlcNAc(b1-2)Man(a1-3)[Fuc(a1-3)[Gal(b1-4)]GlcNAc(b1-2)Man(a1-6)]Man(b1-4)GlcNAc(b1-4)[Fuc(a1-6)]GlcNAc
Outline: as §1

[28] = target: Fuc(a1-3)[Gal(b1-4)]GlcNAc(b1-3)Gal(b1-3)[Fuc(a1-4)]GlcNAc
Outline: as §1

[29] = target: Fuc(a1-3)[Gal(b1-4)]GlcNAc(b1-3)GalNAc
Outline: as §1

B1: CvGal1 (Crassostrea virginica), A7Y0I5 (protein)
chain: MTYQISKISQPFTSYIPNGLHIGKHLLLRGRVSYGTEAFAINLQQNPEPCNGEVAFHFNPRPGEQQCVRNSFDGGSWMDEERDQPHFPFDEGRSFTLRIEVAEEGFRTYVNGKPYVNFSHRLDLGNVHYLYLTEGAEFYDISYQDRYTLPYKSEIPQQMNVGKAVRIRGASQDNDGFSVNFACDPDNENCAFHFNPRPNEGVVVRNANLGGWGDEERDYEAEFPFHPYNYFDAMFICTDDKYLVHVNDKYFTEFNHRGGVDASSFFNIVGNLDIQDVEYFEPLEDDFVKTIPSGLVKGDVLIFRGFMKPGGDTFSINFMNGYSVEDDIAFHLNPRVGEGQVVMNCCMGGAWGDEEREDIPSPLADREPFEVKVVVKKNKFKVYVNGKKCMKFAARGNLEDIKGVNIKGEAYVYEVKLERKLEDSWEYLPGGFRVGGWVVVQAIPKKGSEGFAINFRTGSDEDSDIAFHFNPRLQENCTIRNSCAGGAWGGEERDQPDFPFEKKDTCEIAIQAQPDRFVTYVNGKRYIEFNHRLPLESITCVELTGRADFFEPKFF
[1]
  glycan array binding signal (z-score): -0.256
[2]
  glycan array binding signal (z-score): -0.263
[3]
  glycan array binding signal (z-score): -0.279
[4]
  glycan array binding signal (z-score): -0.282
[5]
  glycan array binding signal (z-score): -0.003
[6]
  glycan array binding signal (z-score): 3.63
[7]
  glycan array binding signal (z-score): 4.14
[8]
  glycan array binding signal (z-score): 2.75
[9]
  glycan array binding signal (z-score): 4.71
[10]
  glycan array binding signal (z-score): 1.75
[11]
  glycan array binding signal (z-score): 3.97
[12]
  glycan array binding signal (z-score): 1.76
[13]
  glycan array binding signal (z-score): 2.79
[14]
  glycan array binding signal (z-score): 6.1
[15]
  glycan array binding signal (z-score): 2.22
[16]
  glycan array binding signal (z-score): 3.06
[17]
  glycan array binding signal (z-score): 2.45
[18]
  glycan array binding signal (z-score): 5.16
[19]
  glycan array binding signal (z-score): -0.277
[20]
  glycan array binding signal (z-score): -0.11
[21]
  glycan array binding signal (z-score): -0.262
[22]
  glycan array binding signal (z-score): -0.306
Fuc(a1-3)GlcNAc
  glycan array binding signal (z-score): -0.088
[23]
  glycan array binding signal (z-score): -0.262
[24]
  glycan array binding signal (z-score): -0.261
[25]
  glycan array binding signal (z-score): -0.252
[26]
  glycan array binding signal (z-score): -0.268
[27]
  glycan array binding signal (z-score): -0.229
[28]
  glycan array binding signal (z-score): -0.231
[29]
  glycan array binding signal (z-score): -0.291

— the supplement of paper PMC8728848
